SMILES strings stand for the structures. The list shows a part of the results.

For assay [1], the system named is HSkMC (human skeletal muscle cells). The experiment in a line: cytotoxicity call (relative viability < 0.9). Particulars: 10 µM.
Assay [2] deals with HepG2. The experiment in a line: cytotoxicity call (relative viability < 0.9). The settings on record: 10 µM.
The test system of assay [3] is S. aureus RN4220. The experiment in a line: growth inhibition call (relative growth <= 0.2). The settings on record: 50 µM.

Turning to `C[C@H](CO)N1C[C@H](C)[C@@H](CN(C)Cc2ccncc2)Oc2ccc(NC(=O)Nc3ccc(C(F)(F)F)cc3)cc2CC1=O`, the cytotoxicity call in assay [1] and in assay [2] was “active” each time. Moreover, the growth inhibition call in assay [3] was “inactive”.
With `C[C@H]1CCCCO[C@H](CN(C)C(=O)Nc2ccc3c(c2)OCO3)[C@@H](C)CN([C@@H](C)CO)C(=O)c2cc(NC(=O)Nc3ccc(F)cc3)ccc2O1`, the cytotoxicity call in assay [1] and in assay [2] was “inactive” each time. For the same molecule, the growth inhibition call in assay [3] is “inactive”.
Regarding `COCC(=O)N1C[C@H](C)[C@@H](OC)CN(C)C(=O)c2cc(NC(=O)Nc3cccc(F)c3)ccc2OC[C@H]1C`, the cytotoxicity call in assay [1] and in assay [2] was “inactive” throughout. For the same molecule, the growth inhibition call in assay [3] is “inactive”.
As for `CO[C@@H]1CN(C)C(=O)c2ccc(NC(=O)Nc3cccc(Cl)c3)cc2OC[C@@H](C)N(C(=O)Nc2c(C)noc2C)C[C@H]1C`, the cytotoxicity call in assay [1] and in assay [2] was “inactive” each time. In addition, the growth inhibition call in assay [3] was “inactive”.
Consider `C[C@@H]1CCCCO[C@@H](CN(C)Cc2ccc3c(c2)OCO3)[C@H](C)CN([C@@H](C)CO)C(=O)c2cc(NC(=O)Nc3ccc(C(F)(F)F)cc3)ccc2O1`, for which the cytotoxicity call in assay [1] and in assay [2] was “active” each time. For the same molecule, the growth inhibition call in assay [3] was “inactive”.
Regarding `COc1ccncc1-c1ccccc1CN(C(=O)c1ccc(-c2ccc(C#N)cc2)o1)c1ccc(N2CCNCC2)cc1`, the cytotoxicity call in assay [1] and in assay [2] was “active” throughout. Further, the growth inhibition call in assay [3] is “inactive”.
Regarding `C[C@H](CO)N1C[C@H](C)[C@H](CN(C)CC2CC2)OCCCC[C@H](C)Oc2ccc(NC(=O)Nc3ccc4c(c3)OCO4)cc2C1=O`, the cytotoxicity call in assay [1] and in assay [2] was “inactive” each time. Further, in assay [3], the growth inhibition call was “inactive”.
`Cc1cncc2cccc(S(=O)(=O)N[C@H]3CN[C@H](C(=O)NN)C3)c12`: the cytotoxicity call in assay [1] and in assay [2] was “inactive” throughout. The growth inhibition call in assay [3] is “inactive”.
On to `C[C@@H]1CCCCO[C@H](CN(C)Cc2ccncc2)[C@@H](C)CN([C@@H](C)CO)C(=O)c2cc(NC(=O)NC3CCCCC3)ccc2O1`, for which the cytotoxicity call in assay [1] and in assay [2] was “inactive” in each case. The growth inhibition call in assay [3] is “inactive”.
With `Cc1ccc(S(=O)(=O)N2C[C@@H](O)COC[C@@H]3O[C@H](CC(=O)N4CCc5ccccc5C4)CC[C@H]32)cc1`, the cytotoxicity call in assay [1] and in assay [2] was “inactive” each time. The growth inhibition call in assay [3] is “inactive”.
Take `CCCCc1ccc(CC(=O)O)cc1`: the cytotoxicity call in assay [1] was “inactive”. The cytotoxicity call in assay [2] was “active”. In addition, the growth inhibition call in assay [3] was “inactive”.
Regarding `C[C@H]1CN([C@@H](C)CO)C(=O)c2cccc(NC(=O)c3ccc(-c4nccs4)cc3)c2O[C@H]1CN(C)Cc1ccc(Oc2ccccc2)cc1`, the cytotoxicity call in assay [1] and in assay [2] was “inactive” throughout. The growth inhibition call in assay [3] was “inactive”.
For `[N-]=[N+]=Nc1ccccc1[C@@H]1OC(c2ccc(OCCCO)cc2)=N[C@]1(CCS(=O)(=O)c1ccccc1)C(=O)NCc1ccccc1`, the cytotoxicity call in assay [1] and in assay [2] was “inactive” in each case. Besides, the growth inhibition call in assay [3] is “inactive”.
In the case of `C[C@@H]1CCCCO[C@@H](CN(C)C(=O)CCCN(C)C)[C@H](C)CN([C@H](C)CO)C(=O)c2cc(NC(=O)Nc3ccc(F)cc3)ccc2O1`, the cytotoxicity call in assay [1] and in assay [2] was “inactive” in each case. The growth inhibition call in assay [3] is “inactive”.
With `C[C@H](CO)N1C[C@H](C)[C@H](CN(C)S(=O)(=O)c2ccc(Cl)cc2)Oc2ccc(NC(=O)Nc3ccc(C(F)(F)F)cc3)cc2CC1=O`, the cytotoxicity call in assay [1] and in assay [2] was “active” throughout. For the same molecule, the growth inhibition call in assay [3] was “inactive”.
Take `COc1ccc(S(=O)(=O)N(C)C[C@@H]2Oc3ccc(NS(=O)(=O)c4cccs4)cc3CC(=O)N([C@H](C)CO)C[C@H]2C)cc1`: the cytotoxicity call in assay [1] and in assay [2] was “inactive” in each case. In assay [3], the growth inhibition call is “inactive”.
With `CCCCCC[C@@H](O)CC=CCCCCCCCC(=O)O`, the cytotoxicity call in assay [1] and in assay [2] was “inactive” throughout. Besides, the growth inhibition call in assay [3] is “inactive”.
`O=C1CN(c2ccccc2)C=NN1`: the cytotoxicity call in assay [1] and in assay [2] was “inactive” throughout. Moreover, the growth inhibition call in assay [3] was “inactive”.
As for `C[C@@H]1CN([C@@H](C)CO)C(=O)c2cccc(NC(=O)c3cnccn3)c2O[C@H]1CN(C)C(=O)NC1CCCCC1`, the cytotoxicity call in assay [1] and in assay [2] was “inactive” each time. Moreover, the growth inhibition call in assay [3] was “inactive”.
As for `O=C(O)c1cc2c([nH]c1=O)CCCC2`, the cytotoxicity call in assay [1] and in assay [2] was “inactive” in each case. Moreover, the growth inhibition call in assay [3] was “inactive”.
Take `COc1ccc(NC(=O)Nc2ccc3c(c2)C(=O)N([C@@H](C)CO)C[C@H](C)[C@H](CN(C)Cc2ccc(Cl)c(Cl)c2)OCCCC[C@@H](C)O3)cc1`: the cytotoxicity call in assay [1] and in assay [2] was “inactive” each time. Moreover, in assay [3], the growth inhibition call was “inactive”.
Take `COCCOC(=O)N1C(=O)[C@@]2(c3cc(C#CCC(C(=O)OC)C(=O)OC)ccc31)[C@H](C(=O)N1CCc3cc(OC)c(OC)cc3C1)[C@H]1C(=O)O[C@H](c3ccccc3)[C@H](c3ccccc3)N1[C@@H]2c1ccc(O)cc1`: the cytotoxicity call in assay [1] and in assay [2] was “inactive” each time. Further, the growth inhibition call in assay [3] was “inactive”.
Turning to `COc1ccc(S(=O)(=O)N(C)C[C@@H]2Oc3cc(-c4ccccc4OC)ccc3S(=O)(=O)N([C@H](C)CO)C[C@@H]2C)cc1`, the cytotoxicity call in assay [1] was “inactive”. Moreover, the cytotoxicity call in assay [2] was “active”. Moreover, in assay [3], the growth inhibition call is “inactive”.
Regarding `O=C(C[C@H]1CC[C@@H]2[C@H](COC[C@@H](O)CN2C(=O)c2ccncc2)O1)NCc1ccc(-c2ccccc2)cc1`, the cytotoxicity call in assay [1] and in assay [2] was “inactive” throughout. Moreover, the growth inhibition call in assay [3] is “inactive”.
As for `C[C@H](CO)N1C[C@H](C)[C@@H](CN(C)C(=O)Nc2ccccc2)Oc2ccc(NC(=O)Cn3cnnn3)cc2C1=O`, the cytotoxicity call in assay [1] and in assay [2] was “inactive” throughout. For the same molecule, the growth inhibition call in assay [3] was “inactive”.
Consider `C[C@@H]1CN([C@@H](C)CO)C(=O)c2cccc(NS(=O)(=O)c3ccccc3)c2O[C@H]1CN(C)S(=O)(=O)c1ccccc1`, for which the cytotoxicity call in assay [1] and in assay [2] was “inactive” in each case. The growth inhibition call in assay [3] was “inactive”.
On to `COc1ccc(S(=O)(=O)Nc2ccc3c(c2)C(=O)N([C@H](C)CO)C[C@H](C)[C@H](CN(C)C(=O)Nc2ccc(C(F)(F)F)cc2)OCCCC[C@H](C)O3)cc1`, for which the cytotoxicity call in assay [1] and in assay [2] was “inactive” throughout. In addition, in assay [3], the growth inhibition call was “inactive”.

Source of the values: the antibiotic and cytotoxicity screens of Wong et al. (2023).
